For 195 variants, enrichment ratio results are on record in a collection of fitness landscapes (doi:10.1126/science.1257360).

This is one part of the list. Bounds are passed on as bounds.

First the molecules themselves.
B1: PhoQ; a variant is named by its letters at X, in order, P23837 (parent)
chain: MKKLLRLFFPLSLRVRFLLATAAVVLVLSLAYGMVALIGYSVSFDKTTFRLLRGESNLFYTLAKWENNKLHVELPENIDKQSPTMTLIYDENGQLLWAQRDVPWLMKMIQPDWLKSNGFHEIEADVNDTSLLLSGDHSIQQQLQEVREDDDDAEMTHSVAVNVYPATSRMPKLTIVVVDTIPVELKSSYMVWSWFIYVLSANLLLVIPLLWVAAWWSLRPIEALAKEVRELEEHNRELLNPATTRELTSLVRNLNRLLKSERERYDKYRTTLTDLTHSLKTPLXXLQXXLRSLRSEKMSVSDAEPVMLEQISRISQQIGYYLHRASMRGGTLLSRELHPVAPLLDNLTSALNKVYQRKGVNISLDISPEISFVGEQNDFVEVMGNVLDNACKYCLEFVEISARQTDEHLYIVVEDDGPGIPLSKREVIFDRGQRVDTLRPGQGVGLAVAREITEQYEGKIVAGESMLGGARMEVIFGRQHSAPKDE

In the assay the parent is B1. Description: enrichment ratio after two sorts for PhoP signalling (ratio (wild type AVST 3.29)); higher = more functional. The following applies: with PhoP (E. coli).
For the variant SLIV, the enrichment ratio was at most 0.25. Take SQYS: the enrichment ratio was at most 0.25.

For the variant WGEH, the enrichment ratio is at most 0.25. Take VWAY: the enrichment ratio was at most 0.25. In the case of TYFG it was at most 0.25; in that of FIHN, at most 0.25; in that of VTSW, at most 0.25.

With HSWA, the enrichment ratio is at most 0.25. In the case of LAHV it was at most 0.25; in that of HSPT, at most 0.25. Take FYFY: the enrichment ratio is at most 0.25.

As for GKTI, the enrichment ratio was at most 0.25. Take PGEL: the enrichment ratio is at most 0.25. With LHWE, the enrichment ratio is at most 0.25. In the case of PLIL it was at most 0.25; in that of NDTP, at most 0.25. In the case of PRCM, the enrichment ratio is at most 0.25. In the case of RQGG it was at most 0.25; in that of TGRA, at most 0.25. Take AKSQ: the enrichment ratio was 20.1. In the case of KVPR it was at most 0.25. In the case of GERV it was at most 0.25. In the case of DDVH, the enrichment ratio was at most 0.25. In the case of EGWR it was at most 0.25. With SSIR, the enrichment ratio was at most 0.25. In the case of TIPR it was at most 0.25; in that of LTWS, at most 0.25.

For the variant NKEA, the enrichment ratio was at most 0.25. Regarding VRDK, the enrichment ratio is at most 0.25. In the case of WGSE it was at most 0.25; in that of MRSE, at most 0.25; in that of KINI, at most 0.25.

On to KIWF, for which the enrichment ratio was at most 0.25. As for KWMC, the enrichment ratio is at most 0.25. In the case of GKLH it was at most 0.25; in that of YQTF, at most 0.25. LDFR: the enrichment ratio is at most 0.25.

With GYSL, the enrichment ratio was at most 0.25. In the case of NKVL it was at most 0.25; in that of DKFW, at most 0.25. With NCPN, the enrichment ratio is at most 0.25. As to MGCV, the enrichment ratio amounted to 14. With TIYM, the enrichment ratio was 2.83. With FNQP, the enrichment ratio is at most 0.25.

On to GKGV, for which the enrichment ratio is at most 0.25. As for RSAK, the enrichment ratio was at most 0.25.

Regarding SGVP, the enrichment ratio was at most 0.25. For the variant WNLD, the enrichment ratio was at most 0.25. In the case of WGWP it was at most 0.25. GCLL: the enrichment ratio is 18.3.

Turning to MVFP, the enrichment ratio is at most 0.25. In the case of LVCM it was at most 0.25; in that of DWAI, at most 0.25; in that of TVNM, 13.5. In the case of LFWF it was at most 0.25; in that of LCVW, at most 0.25. In the case of QSRC it was at most 0.25.

On to DAQF, for which the enrichment ratio was at most 0.25. In the case of YYWT it was at most 0.25. As to QSPQ, the enrichment ratio was at most 0.25. In the case of YVLG it was 1.8; in that of YSLM, 9.22. In the case of IEPM it was at most 0.25; in that of LPEY, at most 0.25. In the case of RDFM it was at most 0.25; in that of HRWY, at most 0.25. WFTM: the enrichment ratio is at most 0.25. On to RWLE, for which the enrichment ratio was at most 0.25.

For ARKY, the enrichment ratio is at most 0.25. In the case of VTPI it was at most 0.25; in that of GYGH, at most 0.25; in that of AHCD, at most 0.25. In the case of DFNQ it was at most 0.25; in that of KPAN, at most 0.25; in that of TTLS, 15.1.

TADE: the enrichment ratio is at most 0.25. For the variant DWQT, the enrichment ratio was at most 0.25.

In the case of YGAG, the enrichment ratio is at most 0.25. FNMI: the enrichment ratio was at most 0.25. PGNM: the enrichment ratio is at most 0.25. In the case of LTFK, the enrichment ratio is at most 0.25. Regarding TWVK, the enrichment ratio is at most 0.25.

Regarding HASA, the enrichment ratio was at most 0.25. In the case of NGLY it was at most 0.25.

For KYFL, the enrichment ratio was at most 0.25. DDKF: the enrichment ratio was at most 0.25. In the case of TCVQ it was at most 0.25; in that of MRCI, at most 0.25.

For the variant TIAV, the enrichment ratio came to 9.45. In the case of YTCY it was at most 0.25; in that of QCPG, at most 0.25. For IPDQ, the enrichment ratio was at most 0.25.

Consider TWPL, for which the enrichment ratio was at most 0.25.

Consider HVNK, for which the enrichment ratio was at most 0.25. As for ANIR, the enrichment ratio was at most 0.25. For the variant MPVP, the enrichment ratio was 0.741.

With PVAA, the enrichment ratio was at most 0.25. In the case of HRDC it was at most 0.25; in that of RCDA, at most 0.25.

Consider ENKI, for which the enrichment ratio was at most 0.25. In the case of FEPW it was at most 0.25. Take IQRG: the enrichment ratio was at most 0.25.

As to EDWH, the enrichment ratio was at most 0.25. With DADY, the enrichment ratio is at most 0.25.

With PAAM, the enrichment ratio is at most 0.25. In the case of QGPV it was at most 0.25. Take REDF: the enrichment ratio was at most 0.25. With HTTV, the enrichment ratio is at most 0.25. Turning to SVYF, the enrichment ratio is at most 0.25. Consider KDQH, for which the enrichment ratio is at most 0.25.

Regarding QIRM, the enrichment ratio was at most 0.25. For MFNA, the enrichment ratio was at most 0.25. In the case of SWRF it was at most 0.25. In the case of DGFM it was at most 0.25; in that of RQLH, at most 0.25. In the case of VGTN, the enrichment ratio is at most 0.25. In the case of WRWN it was at most 0.25; in that of QKFG, at most 0.25; in that of ITIC, at most 0.25. In the case of GTEW it was at most 0.25; in that of LWDM, at most 0.25.

GLHP: the enrichment ratio was found to be 0.28. In the case of YDAI it was at most 0.25; in that of AWAL, at most 0.25; in that of HGDD, at most 0.25.

Take QYNR: the enrichment ratio is at most 0.25. In the case of WDSI it was at most 0.25; in that of YTRK, at most 0.25.

Consider KDGI, for which the enrichment ratio was at most 0.25.

For YIHM, the enrichment ratio is at most 0.25. Turning to DTQG, the enrichment ratio is at most 0.25.

Regarding GYAL, the enrichment ratio is at most 0.25. In the case of LICD it was at most 0.25; in that of YYVD, at most 0.25; in that of WTNL, at most 0.25. Take AANP: the enrichment ratio was at most 0.25.

In the case of MANQ, the enrichment ratio was at most 0.25. In the case of NKAR it was at most 0.25. Turning to TRQC, the enrichment ratio was at most 0.25. Turning to SEAP, the enrichment ratio was at most 0.25.

Consider VISE, for which the enrichment ratio is at most 0.25. MCLT: the enrichment ratio worked out at 0.891. In the case of LWDR it was at most 0.25. As for WMPC, the enrichment ratio was at most 0.25. In the case of VIGI it was at most 0.25; in that of LCWQ, 4.15. In the case of AIVN it was 3.15. Consider PAYG, for which the enrichment ratio was at most 0.25.

As for WGLT, the enrichment ratio was at most 0.25. In the case of FKSF it was at most 0.25; in that of SQHP, at most 0.25; in that of IEYN, at most 0.25. As for GLST, the enrichment ratio was at most 0.25. RIEC: the enrichment ratio was at most 0.25. For the variant SNEE, the enrichment ratio is at most 0.25. WICF: the enrichment ratio was at most 0.25. On to LCWP, for which the enrichment ratio is at most 0.25. For the variant FVKL, the enrichment ratio was at most 0.25. As for GFWH, the enrichment ratio is at most 0.25. In the case of LSEE it was at most 0.25; in that of KMVY, at most 0.25; in that of MFTM, at most 0.25. In the case of QKVM it was at most 0.25; in that of PQEG, at most 0.25. In the case of EFLN, the enrichment ratio is at most 0.25. MRRL: the enrichment ratio was at most 0.25. For WLMM, the enrichment ratio is at most 0.25. In the case of MEWM it was 6.32.

HIQP: the enrichment ratio is at most 0.25. As for AHKR, the enrichment ratio is at most 0.25.

Regarding SSLS, the enrichment ratio was 11.4. Take RRGQ: the enrichment ratio was at most 0.25.

For HVMR, the enrichment ratio was at most 0.25. YKRS: the enrichment ratio was at most 0.25. In the case of FGGL it was at most 0.25. In the case of IFIG it was at most 0.25; in that of ICKA, at most 0.25; in that of VKHP, at most 0.25. In the case of WVVK it was at most 0.25.

In the case of NFMC, the enrichment ratio was at most 0.25. In the case of AEGT it was 8.52; in that of TYDW, at most 0.25; in that of ACVS, 2.83. On to AMWV, for which the enrichment ratio was at most 0.25. In the case of ECGS it was at most 0.25; in that of RHNK, at most 0.25; in that of KMSA, at most 0.25. In the case of HWGA, the enrichment ratio is at most 0.25. In the case of YQMA it was at most 0.25. For the variant ATWP, the enrichment ratio is at most 0.25. For WPAW, the enrichment ratio is at most 0.25. In the case of DVQM it was at most 0.25; in that of KIWG, at most 0.25; in that of NDAC, at most 0.25. As to NWHA, the enrichment ratio is at most 0.25.
